In article PMC8600046:
These are yes or no findings as the source states them, for the method shown. In cells and extracts the contact can be indirect. Some entries that bind do so weakly or less than the wild type.

T1: PEX1 (UniProt O43933)
T1 sequence: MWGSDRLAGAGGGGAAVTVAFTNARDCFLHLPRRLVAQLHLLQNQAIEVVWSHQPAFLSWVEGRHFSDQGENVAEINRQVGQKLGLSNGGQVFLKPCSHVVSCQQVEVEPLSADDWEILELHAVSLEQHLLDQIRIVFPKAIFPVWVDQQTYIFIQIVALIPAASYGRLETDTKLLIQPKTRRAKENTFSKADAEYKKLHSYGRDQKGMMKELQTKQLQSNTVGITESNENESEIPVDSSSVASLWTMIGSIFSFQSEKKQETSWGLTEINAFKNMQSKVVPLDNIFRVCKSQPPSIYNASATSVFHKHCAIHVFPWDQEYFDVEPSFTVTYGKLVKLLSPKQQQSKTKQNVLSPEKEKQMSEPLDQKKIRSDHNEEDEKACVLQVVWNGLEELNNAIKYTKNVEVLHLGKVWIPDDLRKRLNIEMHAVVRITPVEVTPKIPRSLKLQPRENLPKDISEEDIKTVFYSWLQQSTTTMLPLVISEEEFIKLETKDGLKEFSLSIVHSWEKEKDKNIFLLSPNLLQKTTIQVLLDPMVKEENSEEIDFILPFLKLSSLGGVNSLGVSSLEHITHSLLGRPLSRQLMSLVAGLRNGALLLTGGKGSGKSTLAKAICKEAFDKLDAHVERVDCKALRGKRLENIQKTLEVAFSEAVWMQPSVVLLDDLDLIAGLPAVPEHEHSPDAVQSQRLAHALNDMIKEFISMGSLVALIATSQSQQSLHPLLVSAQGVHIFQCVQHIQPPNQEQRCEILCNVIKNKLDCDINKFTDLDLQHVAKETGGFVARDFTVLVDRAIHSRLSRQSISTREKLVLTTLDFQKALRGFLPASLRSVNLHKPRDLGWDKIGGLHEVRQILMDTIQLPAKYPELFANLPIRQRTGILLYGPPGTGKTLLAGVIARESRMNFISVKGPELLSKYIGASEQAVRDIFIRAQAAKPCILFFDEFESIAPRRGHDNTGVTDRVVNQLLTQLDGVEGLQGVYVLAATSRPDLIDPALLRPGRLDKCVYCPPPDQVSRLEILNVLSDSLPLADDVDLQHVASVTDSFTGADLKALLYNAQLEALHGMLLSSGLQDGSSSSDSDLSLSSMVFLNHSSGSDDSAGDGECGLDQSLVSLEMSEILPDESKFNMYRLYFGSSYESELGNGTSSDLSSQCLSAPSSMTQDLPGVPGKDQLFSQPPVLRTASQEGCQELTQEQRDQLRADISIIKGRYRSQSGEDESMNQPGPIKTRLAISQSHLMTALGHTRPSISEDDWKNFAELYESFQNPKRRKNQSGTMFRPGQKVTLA

T2: PEX3 (UniProt P56589)
T2 sequence: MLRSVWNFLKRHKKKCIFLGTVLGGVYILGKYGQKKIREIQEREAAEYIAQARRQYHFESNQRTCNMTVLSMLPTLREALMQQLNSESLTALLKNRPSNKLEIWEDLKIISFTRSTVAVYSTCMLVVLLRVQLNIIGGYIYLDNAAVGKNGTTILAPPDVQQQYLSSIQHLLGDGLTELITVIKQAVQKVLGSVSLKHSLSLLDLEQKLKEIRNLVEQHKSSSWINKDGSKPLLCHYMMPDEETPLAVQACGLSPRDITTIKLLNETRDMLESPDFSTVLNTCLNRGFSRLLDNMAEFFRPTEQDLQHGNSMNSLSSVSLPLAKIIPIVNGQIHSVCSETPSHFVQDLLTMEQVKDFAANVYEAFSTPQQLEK

T3: peroxin PEX6 (UniProt Q13608)
T3 sequence: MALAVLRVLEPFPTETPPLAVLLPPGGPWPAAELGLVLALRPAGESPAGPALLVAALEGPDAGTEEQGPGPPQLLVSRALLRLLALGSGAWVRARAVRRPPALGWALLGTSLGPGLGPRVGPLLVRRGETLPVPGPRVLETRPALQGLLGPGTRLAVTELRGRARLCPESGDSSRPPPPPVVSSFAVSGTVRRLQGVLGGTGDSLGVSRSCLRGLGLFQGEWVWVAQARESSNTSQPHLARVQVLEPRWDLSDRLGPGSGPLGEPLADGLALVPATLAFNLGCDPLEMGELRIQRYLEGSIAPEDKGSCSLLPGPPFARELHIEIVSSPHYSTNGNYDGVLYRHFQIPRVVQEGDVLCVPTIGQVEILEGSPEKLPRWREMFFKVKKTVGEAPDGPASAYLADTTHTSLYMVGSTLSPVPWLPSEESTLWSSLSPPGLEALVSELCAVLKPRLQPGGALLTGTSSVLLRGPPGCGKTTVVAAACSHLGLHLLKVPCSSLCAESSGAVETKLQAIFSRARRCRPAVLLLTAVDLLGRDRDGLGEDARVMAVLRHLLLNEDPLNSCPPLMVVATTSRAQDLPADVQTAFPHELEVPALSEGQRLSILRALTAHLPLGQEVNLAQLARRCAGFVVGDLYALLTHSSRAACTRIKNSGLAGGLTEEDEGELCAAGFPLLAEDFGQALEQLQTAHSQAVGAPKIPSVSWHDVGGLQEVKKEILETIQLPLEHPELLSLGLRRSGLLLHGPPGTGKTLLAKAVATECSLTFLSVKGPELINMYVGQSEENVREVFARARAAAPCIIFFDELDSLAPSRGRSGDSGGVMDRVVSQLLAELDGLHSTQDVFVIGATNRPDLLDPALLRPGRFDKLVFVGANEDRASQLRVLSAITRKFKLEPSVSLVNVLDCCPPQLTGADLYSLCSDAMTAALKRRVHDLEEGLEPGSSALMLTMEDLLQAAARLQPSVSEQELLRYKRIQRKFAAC


Tests used:
Test in all cases: FRET or BRET; BRET in living HEK293 cells co-transfected with Rluc (donor) and YFP (acceptor) fusions, acceptor to donor ratio 3:1; read 48 h later with coelenterazine 30 μM; all eight combinations of N- or C-terminal fusions tested in duplicates; interaction assumed if at least one combination gave a BRET ratio above the threshold of 0.094
PEX1 = biological target: T1, PEX1
PEX3 = biological target: T2, PEX3
peroxin PEX6 = biological target: T3, peroxin PEX6

Binder	binding (PEX1)	binding (PEX3)	binding (peroxin PEX6)
peroxin PEX6 (protein, UniProt Q13608 1-980) MALAVLRVLEPFPTETPPLAVLLPPGGPWPAAELGLVLALRPAGESPAGPALLVAALEGPDAGTEEQGPGPPQLLVSRALLRLLALGSGAWVRARAVRRPPALGWALLGTSLGPGLGPRVGPLLVRRGETLPVPGPRVLETRPALQGLLGPGTRLAVTELRGRARLCPESGDSSRPPPPPVVSSFAVSGTVRRLQGVLGGTGDSLGVSRSCLRGLGLFQGEWVWVAQARESSNTSQPHLARVQVLEPRWDLSDRLGPGSGPLGEPLADGLALVPATLAFNLGCDPLEMGELRIQRYLEGSIAPEDKGSCSLLPGPPFARELHIEIVSSPHYSTNGNYDGVLYRHFQIPRVVQEGDVLCVPTIGQVEILEGSPEKLPRWREMFFKVKKTVGEAPDGPASAYLADTTHTSLYMVGSTLSPVPWLPSEESTLWSSLSPPGLEALVSELCAVLKPRLQPGGALLTGTSSVLLRGPPGCGKTTVVAAACSHLGLHLLKVPCSSLCAESSGAVETKLQAIFSRARRCRPAVLLLTAVDLLGRDRDGLGEDARVMAVLRHLLLNEDPLNSCPPLMVVATTSRAQDLPADVQTAFPHELEVPALSEGQRLSILRALTAHLPLGQEVNLAQLARRCAGFVVGDLYALLTHSSRAACTRIKNSGLAGGLTEEDEGELCAAGFPLLAEDFGQALEQLQTAHSQAVGAPKIPSVSWHDVGGLQEVKKEILETIQLPLEHPELLSLGLRRSGLLLHGPPGTGKTLLAKAVATECSLTFLSVKGPELINMYVGQSEENVREVFARARAAAPCIIFFDELDSLAPSRGRSGDSGGVMDRVVSQLLAELDGLHSTQDVFVIGATNRPDLLDPALLRPGRFDKLVFVGANEDRASQLRVLSAITRKFKLEPSVSLVNVLDCCPPQLTGADLYSLCSDAMTAALKRRVHDLEEGLEPGSSALMLTMEDLLQAAARLQPSVSEQELLRYKRIQRKFAAC	binds	no binding	–
PEX26 p.Met1Thr truncated fragment (aa96-305) (domain or fragment, UniProt Q7Z412-1 96-305) MDRWQEVLSWVLQYYQVPEKLPPKVLELCILLYSKMQEPGAVLDVVGAWLQDPANQNLPEYGALAEFHVQRVLLPLGCLSEAEELVVGSAAFGEERRLDVLQAIHTARQQQKQEHSGSEEAQKPNLEGSVSHKFLSLPMLVRQLWDSAVSHFFSLPFKKSLLAALILCLLVVRFDPASPSSLHFLYKLAQLFRWIRKAAFSRLYQLRIRD	–	–	no binding
